Results: patent US7148353B2 (priority 2003, dated 2006)
At least one structure is not confirmed: it was looked up by name or label, or the drawing left a doubt.

Target: central benzodiazepine receptors
Experiment: binding to central benzodiazepine receptors, displacement of 3H-flunitrazepam (test of Speth et al.)

| Structure (SMILES) | IC50 (Table 1a) [nM] | other results |
| --- | --- | --- |
| Cc1ccc(-c2nc3ccc(C)cn3c2CC(=O)c2sc(C)nc2C)cc1 | 2200 | – |
| Cc1ccc(-c2nc3ccc(C)cn3c2CC(=O)c2scc(S(C)(=O)=O)c2Cl)cc1 | 200 | – |
| Cc1ccc(-c2nc3ccc(C)cn3c2CC(=O)c2cncnc2)cc1 | 5500 | – |
| Cc1ccc(-c2nc3ccc(C)cn3c2CC(=O)c2snnc2C)cc1 | 2000 | – |
| Cc1ccc(-c2nc3ccc(C)cn3c2CC(=O)c2cc(C)n(C)n2)cc1 | 360 | – |
| CSc1ccc(C(=O)Cc2c(-c3ccc(C)cc3)nc3ccc(C)cn23)s1 | 4800 | – |
| Cc1ccc(-c2nc3ccc(C)cn3c2CC(=O)c2c(C)noc2C)cc1 | 650 | – |
| Cc1ccc(-c2nc3ccc(C)cn3c2C2CCCNC2=O)cc1 (centres unmarked) | – | IC50 (Table 2): 1600 nM |
| O=C(Cc1c(-c2ccc(Cl)cc2)nc2ccccn12)c1cccs1 | – | IC50 (Table 1b): 890 nM |
| Cc1ccc(-c2nc3ccc(C)cn3c2CC(=O)c2cc(C)on2)cc1 | 1800 | – |
| Cc1ccc(-c2nc3ccc(C)cn3c2CC(=O)c2nn(-c3ccccc3)nc2C)cc1 | > 10000 | – |
| O=C(Cc1c(-c2ccc(Cl)cc2)nc2ccc(Cl)cn12)c1cccs1 | – | IC50 (Table 1b): 3600 nM |
| Cc1ccc(-c2nc3ccc(C)cn3c2CC(=O)c2nsc(Cl)c2Cl)cc1 | 1300 | – |
| Cc1ccc(-c2nc3ccc(C)cn3c2CC(=O)c2ccsc2)cc1 | 1400 | – |
| COc1ccc(-c2nc3ccc(C)cn3c2CC(=O)c2cccs2)cc1 | – | IC50 (Table 1b): 3600 nM |
| Cc1ccc(-c2nc3ccc(C)cn3c2C2CC=CCN(C)C2=O)cc1 (centres unmarked) | – | IC50 (Table 2): > 10000 nM |
| Cc1ccc(-c2nc3ccc(C)cn3c2CC(=O)c2sccc2Cl)cc1 | 950 | – |
| CCn1nc(C)c(Br)c1C(=O)Cc1c(-c2ccc(C)cc2)nc2ccc(C)cn12 | 2800 | – |
| Cc1ccc(-c2nc3ccc(C)cn3c2CC(=O)c2c(C)nn(-c3ccccc3)c2C)cc1 | 2100 | – |
| Cc1ccc(-c2nc3ccc(C)cn3c2CC(=O)c2cn(-c3cccc(C)n3)cn2)cc1 | 2100 | – |
| Cc1ccc(-c2nc3ccc(C)cn3c2CC(=O)c2nccs2)cc1 | 840 | – |
| Cc1ccc(-c2nc3ccc(C)cn3c2CC(=O)c2csc(-c3cccs3)n2)cc1 | 1700 | – |
| Cc1ccc(-c2nc3ccc(C)cn3c2CC(=O)c2sccc2C)cc1 | 110 | – |
| Cc1ccc(-c2nc3ccc(C)cn3c2CC(=O)c2c(C)nn(C)c2C)cc1 | 180 | – |
| Cc1ccc(-c2nc3ccc(C)cn3c2CC(=O)c2cc3c(C)nn(C)c3s2)cc1 | 720 | – |
| Cc1ccc(-c2nc3ccc(C)cn3c2CC(=O)c2c(C)nc3cc(C)ccn23)cc1 | > 10000 | – |
